Drawing on PubChem BioAssay AID488969 (Vanderbilt High Throughput Screening Facility, 2010), this text covers z-score for 68 compounds.

In all, about 110,000 compounds were measured (“z-score”: median about -0.1, highest 2% from about 2 on). Some of the results follow. The source made the active and inactive calls.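 Rule for the calls: active = z-score in the third read window above 3 or below -3; inactive = the rest.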

This assay has as its target Metabotropic glutamate receptor 8 (Rattus norvegicus) (UniProt P70579). Briefly: rat mGluR8 modulators via GIRK flux, primary screen, cell-based, thallium flux, HTS (AID 488969). To be noted: HEK293 rat mGluR8, GIRK (G protein-gated inwardly rectifying potassium channel) thallium flux, FluoZin2; at 10 µM; stronger effect = higher value; submaximal glutamate (EC20) added with thallium.
Chain of UniProt P70579 (P70579 whole entry, looked up): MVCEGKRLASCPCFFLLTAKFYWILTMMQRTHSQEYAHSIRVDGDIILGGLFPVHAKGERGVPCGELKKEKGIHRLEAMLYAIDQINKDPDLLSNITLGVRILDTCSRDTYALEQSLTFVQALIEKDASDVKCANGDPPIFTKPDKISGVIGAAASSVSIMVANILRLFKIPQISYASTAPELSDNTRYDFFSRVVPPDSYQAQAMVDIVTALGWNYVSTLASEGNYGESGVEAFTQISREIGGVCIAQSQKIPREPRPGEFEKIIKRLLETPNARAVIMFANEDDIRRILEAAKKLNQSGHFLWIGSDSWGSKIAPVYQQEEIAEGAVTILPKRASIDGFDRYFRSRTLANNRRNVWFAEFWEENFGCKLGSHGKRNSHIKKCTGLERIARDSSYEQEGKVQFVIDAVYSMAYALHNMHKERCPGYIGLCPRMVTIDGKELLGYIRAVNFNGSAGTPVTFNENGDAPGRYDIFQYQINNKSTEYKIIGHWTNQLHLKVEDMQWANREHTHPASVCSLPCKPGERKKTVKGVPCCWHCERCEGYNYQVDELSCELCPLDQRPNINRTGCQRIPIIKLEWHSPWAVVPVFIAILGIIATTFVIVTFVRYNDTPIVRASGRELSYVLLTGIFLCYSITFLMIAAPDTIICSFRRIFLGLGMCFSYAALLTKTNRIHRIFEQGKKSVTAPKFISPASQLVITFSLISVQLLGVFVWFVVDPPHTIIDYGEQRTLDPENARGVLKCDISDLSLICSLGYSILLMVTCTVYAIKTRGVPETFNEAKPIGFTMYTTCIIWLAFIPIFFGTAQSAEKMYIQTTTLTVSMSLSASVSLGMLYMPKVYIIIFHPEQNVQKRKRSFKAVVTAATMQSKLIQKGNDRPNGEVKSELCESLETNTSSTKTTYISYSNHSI
For `Cc1cccc(C)c1NC(=O)CSc1nnc(-c2ccncc2)n1Cc1ccco1`, the z-score was -0.176.

For the compound `CC(/C=N/NC(=O)c1ccncc1)=C\c1ccccc1`, the z-score stood at 0.474.

The compound `Cc1nc2cc(C(=O)O)ccc2n1-c1ccccc1` showed a z-score of -0.182.

Turning to `COc1cccc(-c2[nH]nc3c2C(c2ccsc2)C(C#N)=C(N)O3)c1` (stereo not drawn), the z-score was -0.357.

The compound `C=CCn1c(=O)c(C(=O)Nc2ccccc2O)c(O)c2ccccc21` registered a z-score of -0.43.

Compound `C=CCNc1nc(Nc2ccc(OC)cc2)nc(OCC)n1` returned a z-score of -0.00352.

On to `COc1cc(/C=N/NC(=O)c2[nH]nc3c2CCc2ccccc2-3)ccc1O`, for which the z-score is -0.565.

Take `Cc1nn(C)c(C(=O)NNC(=S)Nc2ccc(F)cc2)c1[N+](=O)[O-]`: the z-score was -0.092.

`CCOC(=O)c1c(C)oc2c1cc(O)c1ccccc12` returned a z-score of -0.493.

On to `O=C(CSc1nnc(COc2ccccc2)o1)c1ccccc1`, for which the z-score is -0.179.

In turn, `O=C(Cc1cccs1)Nc1cccc(-c2nc3ccccc3[nH]2)c1` returned a z-score of 0.109.

`CN(Cc1ccccc1)C(=S)NC(=O)C1CCCCC1` came in with a z-score of 1.47.

`COc1ccccc1S(=O)(=O)Cc1ccc(C(=O)N2CCN(c3ccccc3)CC2)o1` returned a z-score of -0.523.

Consider `COc1ncnc2c1cnn2-c1ccccc1`, for which the z-score is -0.223.

As for `CC1CCC/C(=N\NC(=S)NCc2ccccc2)C1` (stereo not drawn), the z-score came out at 1.93.

Consider `N#Cc1cc2c(nc1SCC(=O)Nc1nccs1)CCCCC2`, for which the z-score was -0.152.

On to `CC(C)C(C)(C#N)NC(=O)CSc1ncnc2sc(-c3ccccc3)cc12` (stereo not drawn), for which the z-score was active: 4.81.

The compound `Cc1ccc(-n2c(-c3c(-c4ccccc4)noc3C)n[nH]c2=S)cc1` yielded a z-score of 0.919.

`CCCC1=C(C(=O)OCC)C(c2ccc(OC)c(CSc3ccccn3)c2)C(C#N)=C(N)O1` (stereo not drawn) had a z-score of -0.0881.

In the case of `CC1(C)CC(NC(=O)CC(c2ccccc2)c2ccccc2)CC(C)(C)N1`, the z-score is 0.479.

In the case of `C=CCc1ccc(OCCOCCOc2cccc3cccnc23)c(OC)c1`, the z-score was -0.697.

Regarding `NC(=O)NC(=O)COC(=O)CN1C(=O)C2CCCCC2C1=O` (stereo not drawn), the z-score came out at 0.309.

In turn, `CCn1c(C)cc2c(c1=O)C(c1ccccc1)C(C(=O)OC)=C(N)O2` (stereo not drawn) registered a z-score of 0.227.

`CN(CC#CC1(O)c2ccccc2-c2ccccc21)Cc1ccccc1` gave a z-score of 0.054.

Turning to `N#Cc1c2c(c(N3CCN(c4ccccn4)CC3)n3c1nc1ccccc13)CCC2`, the z-score was -0.376.

`Cc1ccc(C(C(=O)NC2CCCC2)N(C(=O)Cc2cccs2)c2ccc(C)c(C)c2)o1` (stereo not drawn): the z-score is -0.224.

Turning to `O=C(NCCN1C(=O)C2C3C=CC(C3)C2C1=O)Nc1ccc(Br)cc1` (stereo not drawn), the z-score came to 0.25.

Compound `COc1ccc2cc(CN(C(=O)Nc3ccccc3OC)C3CCCC3)c(=O)[nH]c2c1` came in with a z-score of -0.24.

The compound `COc1ccc(C(=O)OC(C)CN2CCN(C)CC2)cc1OC` (stereo not drawn) registered a z-score of 0.331.

For the compound `C=CCc1cccc2cc(C(=O)Nc3ccc(S(=O)(=O)Nc4nnc(CC)s4)cc3)c(=O)oc12`, the z-score was -0.0201.

As to `O=c1cc(N2CCN(c3ccccc3F)CC2)[nH]c(=O)n1-c1ccc(Br)cc1`, the z-score was determined as 0.0857.

For `O=C(CC(=O)Nc1ccccn1)Nc1ccccn1`, the z-score was active: 4.08.

As for `CCOc1ccccc1NC(=O)C(Sc1ccccc1)c1ccccc1` (stereo not drawn), the z-score was -0.158.

`Cc1ccc(-c2noc(CN(C(=O)CCCCCN3C(=O)c4ccccc4C3=O)C(C)C)n2)cc1` showed a z-score of 0.296.

The compound `O=C(Nn1cnnc1)C1Cc2ccccc2CN1S(=O)(=O)c1ccc(F)cc1` (stereo not drawn) yielded a z-score of -0.00582.

With `NC(=O)c1c(-c2ccccc2)oc2ccc(O)cc12`, the z-score came to 0.00752.

In the case of `CCOc1ccc(NCc2nnc(SCC(=O)Nc3nc(-c4ccccc4)cs3)n2-c2ccccc2)cc1`, the z-score was -0.203.

In the case of `Cc1nnc(SCc2cc(=O)[nH]c(Nc3nc(C)c4ccccc4n3)n2)s1`, the z-score was -0.33.

In turn, `COC(=O)c1ccc(CSc2nnc(-c3c[nH]c4ccccc34)n2-c2ccccc2)cc1` yielded a z-score of -0.222.

Regarding `CCOc1ccc2nc(N3CCCC(C(=O)N4CCN(CC)CC4)C3)sc2c1` (stereo not drawn), the z-score was -0.536.

Compound `Brc1ccc(Nc2c3c(nc4ncnn24)CCC3)cc1` showed a z-score of -0.339.

`CC(C)C1N(C(=O)CN2CCCC2)CCN1S(=O)(=O)c1ccccc1` (stereo not drawn) displayed a z-score of 0.282.

`N#Cc1ccccc1NC(=O)COC(=O)CSc1nc2ccccc2o1`: the z-score was -2.27.

Take `COC(=O)C1=C(C)N=C2SC(C#N)=C(N)N2C1c1ccc(OC)cc1` (stereo not drawn): the z-score was -0.21.

For the compound `COc1ccc(S(=O)(=O)N2CCC(N3CCN(c4ccccc4)CC3)CC2)cc1`, the z-score is -0.0952.

Regarding `COc1cc(NC(=O)CSc2nc3ccccc3c(=O)n2C)ccc1NC(=O)c1ccco1`, the z-score was -0.617.

`CC(C)(C)n1nc2c(c1NC(=O)CCCc1ccccc1)CS(=O)C2` (stereo not drawn) returned a z-score of -0.193.

On to `O=C1CC(c2ccccc2)=Nc2ccccc2N1`, for which the z-score is -0.0288.

Turning to `COc1ccc(C(=O)COc2nc(C)cc(C)c2C#N)cc1`, the z-score was -0.635.

Compound `C=CCNC(=O)/C(=C\c1ccc2c(c1)OCO2)NC(=O)c1ccc(Br)cc1` showed a z-score of -0.116.

The compound `CC(C)C[C@H](NC(=O)NCc1ccccc1Cl)C(=O)O` returned a z-score of 0.269.

Compound `COc1cccc(CNc2ncnc3cc(OC)c(OC)cc23)c1` registered a z-score of -0.0442.

`COC(=O)c1ccccc1NC(=O)COC(=O)c1ccco1` showed a z-score of -0.773.

For `CC(C)CNC(=S)NC1CC2CCCC(C1)N2Cc1cccs1` (stereo not drawn), the z-score is -0.473.

For the compound `CC(=O)C1=C(O)C(=O)N(Cc2cccnc2)C1c1ccc(Cl)cc1` (stereo not drawn), the z-score is -0.551.

`CCOC(=O)N1CCC(NC(=O)c2cn(-c3ccc(OC)cc3)c(=O)c3ccccc23)CC1` had a z-score of 0.552.

`CC(C)(C)c1cc(C(=O)N2CCN(c3ncccn3)CC2)ccn1` displayed a z-score of -0.275.

Take `CCOC(=O)C1CCN(C(=O)c2cn(CCOC)c(=O)c3c2c2ccccc2n3C)CC1`: the z-score was found to be 0.278.

Turning to `O=c1oc2ccccc2c(O)c1C=NCc1ccccn1`, the z-score was determined as 0.0197.

`Cc1cc(C)c(C(=O)/C=C/c2cccc3ccccc23)c(=O)[nH]1` registered a z-score of -0.311.

The compound `CCCSc1nc(-c2ccccc2)cc(C(F)(F)F)c1C#N` registered a z-score of -0.221.

As to `O=C(CNC(=O)C12CC3CC(CC(C3)C1)C2)NC1=NCCS1`, the z-score is -1.01.

In turn, `COc1ccccc1NS(=O)(=O)c1cc(NC(=O)Cn2cnc3c2c(=O)n(C)c(=O)n3C)ccc1C` showed a z-score of -0.578.

Turning to `Cc1ccccc1N1CCN(C(=O)CCN2C(=O)c3ccccc3C2=O)CC1`, the z-score is -0.36.

`COc1ccc(C(C(O)C(=O)c2c[nH]c3ccccc23)N2CCN(c3ccc(OC)cc3)CC2)cc1` (stereo not drawn) had a z-score of 0.0102.

On to `COc1ccc2c(c1)C(=O)c1ccccc1CO2`, for which the z-score was -0.252.

`Cc1c(NC(=O)C2CC(c3c(F)cccc3Cl)=NO2)c(=O)n(-c2ccccc2)n1C` (stereo not drawn) registered a z-score of -0.349.

Consider `c1ccc(Cn2nnnc2C(c2ccccc2)N2CCN(c3nc4ccccc4s3)CC2)cc1` (stereo not drawn), for which the z-score is -0.038.
